Measured values published in PubChem BioAssay (NCI).
Values joined by “and” are separate entries in the source; they are usually repeats but may differ in a detail not shown here. Equal entries are not always repeated.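 Following 48 hours of exposure in 96-well plates, responses at five concentrations were used to interpolate endpoints linearly. GI50 marks 50% less growth. The concentration for full growth arrest is given as TGI.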

System: NCI-H322M lung
Experiment: DTP human tumour cell line panel, 48 h

SMILES	GI50 [µM]	TGI
Cc1cc(Nc2nc(-c3ccc(F)cc3)nc3ccccc23)n[nH]1	3.99	29.3 µM
CC(C)NC(=O)OCc1c(COC(=O)NC(C)C)c(-c2ccc[n+](COC(=O)C(C)C)c2)n2c1CCC2		> 100 µM
COC1=CC(=O)[C@]2(C)[C@H](C1=O)C(C)[C@H]2c1ccc(OC)cc1 (some centres undefined)		> 100 µM
CNS(=O)(=O)NNS(=O)(=O)c1cccc([N+](=O)[O-])c1		> 100 µM
CCOCc1cc(=O)c2cc3c(cc2o1)OC(C)(C)CC3		> 100 µM
CC(c1ccccc1)N1O[C@]12CC[C@@]1(C)C(CCCC13OCCO3)C2 (some centres undefined)		> 100 µM
COc1ccc(C(=O)NCCC2=CCCCC2)cc1		> 100 µM
O=[N+]([O-])/C(C(Cl)=C(Cl)Cl)=C1\NCCS1		> 100 µM
COc1ccc2c(c1)CCc1c(C(C)=O)c3ccccc3n1C2		> 100 µM
CC(C)(Oc1ccc(Cl)cc1)C(=O)N(C(=O)N1CCN(c2ccccc2)CC1)c1ccccc1		> 100 µM
O=C1C(N2CCOCC2)=C(Cl)C(=O)c2ncccc21		> 10 µM
CC(C)c1cc2c(c(O)c1O)[C@@]1(C)CCCC(C)(C)C1=C(O)C2		9.81 µM
CCCCCCCCCC(CCCC(O)CC(=O)O)OC1OC(COC2OC(C)C(O)C(O)C2O)C(O)C(O)C1OC1OC(CO)C(O)C(O)C1OC1OC(C)C(OC(=O)CC(C)C)C(O)C1O (centres undefined)	> 60	> 60 µM
O=C(NCCCN1CCC(N2CCCCC2)CC1)C1=Cc2cc(Br)ccc2OC1	8.58	22.5 µM
c1ccc(-c2[o+]c(-c3ccccc3)c(-c3ccccc3)c(-c3ccccc3)c2-c2ccccc2)cc1		> 100 µM
C=C1CCC(OC(C)=O)C2(C)C(OC(C)=O)CC3OC3(C)C2C(OC(C)=O)C2C(C)C(=O)OC2C1Cl (centres undefined)		> 100 µM
C[C@]12CCC3c4ccc(O)cc4CC[C@H]3C1CC(=O)NC2=O (some centres undefined)		> 10 µM
COC12OCCN(CCO)C1=CC(=O)C1(C)N=NC(C)C12 (centres undefined)		> 100 µM
CC(=O)OCc1cnc2c3c(nc4ccccc4c13)C(=O)c1cccnc1-2	0.0323	0.749 µM
CN(C)CCn1cnc2sc3ccccc3c21		> 100 µM
Cc1cc(C)c2c(c1)CC1(Cc3c(ccc(C)c3C)C1=O)C2=O (centres undefined)		> 100 µM
C=CCNCCN1C(=O)c2ccc3c4c(ccc(c24)C1=O)C(=O)N(CCNCC=C)C3=O	0.698	2.23 µM
O=C1C=CC=C[C@@H]2C(C3OCCO3)CC[C@H]12.[C-]#[O+].[C-]#[O+].[C-]#[O+].[Fe] (some centres undefined)	> 100	> 100 µM
CCN1C(C)(C)CC(Oc2ccc(C(=O)Nc3ccc(NC(=O)Nc4cc(C(C)(C)C)on4)cc3)nc2)CC1(C)C	2.68	8.89 µM

SMILES	GI50 [µM]	TGI
COC(=O)Cc1c(C(=O)CC(C)(C)n2cnc(CCN3C(=O)CCC3=O)c2)[nH]c2ccccc12		> 100 µM
CN1CCN(c2ccc3[nH]c(C4=C(O)c5nc(CCl)n(C)c5C(=O)C4=O)nc3n2)CC1	16.5	40.1 µM and 35.8 µM
COc1ccc2oc(=N)c(C(N)=O)cc2c1		> 100 µM
Cn1ccnc1Sc1ccc(/C=N\NC(=O)c2cccc(F)c2)cc1[N+](=O)[O-]		> 100 µM
C=CCN1CN(C2CCCCC2)CSC1=S		40.3 µM
CC(C)(C)C1=Nc2c(Br)cc(C(C)(C)C)cc2C(C(F)(F)F)(C(F)(F)F)O1		> 100 µM
C=CCN1C(N)=C(C#N)C(C#N)(C#N)C1CCC (centres undefined)		> 100 µM
CC(=O)OCC1OC(n2c3c(cc(C#N)c2=O)CCCCCC3)C(OC(C)=O)C(OC(C)=O)C1OC(C)=O (centres undefined)		> 100 µM
CC(=O)N1C(Nc2ccccc2)CCN1c1ccccc1 (centres undefined)		> 10 µM
COc1ccc(C(CC(C)=O)c2c(O)c3ccccc3oc2=O)cc1OC (centres undefined)		> 100 µM
OC/C=C/[C@H](OCc1ccccc1)[C@H](/C=C/CO)OCc1ccccc1		> 100 µM
COc1ccccc1-c1cc(=O)c2c(C)ccnc2[nH]1		> 100 µM
Clc1nc(Cl)c2ncn(C/C=C\COc3cccc(OC/C=C\Cn4cnc5c(Cl)nc(Cl)nc54)c3)c2n1	> 100	> 100 µM
O=C1NC(=NCc2ccccc2Br)S/C1=C\c1ccc2ncccc2c1	5.04	> 20.9 µM
COc1ccc(-c2nc(N)n(C)c2SSc2c(-c3ccc(OC)cc3)nc(N)n2C)cc1		29.5 µM
COc1cccc2c1C(=O)c1c(O)c3c(c(O)c1C2=O)C[C@@](O)(C(C)=O)C[C@@H]3O[C@H]1C[C@H](N)[C@H](O)[C@H](C)O1	0.288	2.52 µM
COC(=O)[C@@]12C(=O)CCC(=O)C1C1C(=CC2C)O[C@@H]2OC3(CCCCC3)O[C@H]12 (some centres undefined)		> 100 µM
COc1ccc2[nH]c3c(C)c4ccnc(NCCCN(C)CCCNc5ccc([N+](=O)[O-])c6[nH]c7ccccc7c(=O)c56)c4c(C)c3c2c1		4.46 µM
COc1cc2c(cc1OC)C(C#N)(Cc1ccccc1)N(C(=O)c1ccccc1)C=C2 (centres undefined)		> 100 µM
CCCCCCCCCCCCCCCCCCOP1(=O)OCCO1		> 100 µM
CCCN1CCN(c2ccc3nc(-c4ccc5nc(-c6ccc(C(F)(F)F)cc6)[nH]c5c4)[nH]c3c2)CC1	1.73	3.12 µM
COc1cc2c(/C=C3\C(=O)N(C)c4ccc(O)cc43)c[nH]c2cc1C	8.85	31 µM
COc1cccc2c(=O)c3c(n(C)c12)OC(C(C)C)C3 (centres undefined)		> 100 µM
O=C(Cc1nc(-c2ccccc2)cc(=O)n1-c1ccccc1Cl)c1ccncc1		> 100 µM

SMILES	GI50 [µM]	TGI
CC(C)(C)C1=NC(=P(c2ccccc2)(c2ccccc2)c2ccccc2)C(=O)O1		> 100 µM
Cc1nc(-c2nc(C)c(C(=O)/C=C/c3ccc([N+](=O)[O-])cc3)s2)sc1C(=O)/C=C/c1ccc([N+](=O)[O-])cc1		> 100 µM
Cc1cc2nc(N3C(=O)/C(=C/c4ccc(Oc5ccccc5)cc4)N=C3c3ccccc3)sc2cc1C		> 100 µM
N=C1N(/N=C/c2ccccn2)C(=Nc2ccccc2)C(=S)N1c1ccccc1		27.4 µM
COc1cc(C)cc2c1[nH]c1ccccc12	13	> 25 µM
C1OC1C1CO1 (centres undefined)		> 100 µM
Cc1ncc(C(=O)Nc2ccc(CN3CCN(C)CC3)c(C(F)(F)F)c2)cc1C#Cc1c(N)ncc2ccc(F)cc12	0.937	3.08 µM
CCCCCCN1C(=O)CC(=O)N(CCCCCC)S1(=O)=O		> 100 µM
O=c1oc2ccc(Br)cc2c(=O)n1-c1ccc(Br)cc1F	0.461	14.4 µM
COc1c2c(cc3occ(-c4ccc(CC=C(C)C)cc4)c(=O)c13)OC(C)(C)C=C2		> 100 µM
O=C(/C=C/c1ccc(Cl)cc1)c1ccc(Cl)c(Cl)c1		> 100 µM
NCCNS(=O)(=O)c1ccc(N)cc1		> 100 µM
NC(N)=N/N=C\c1ccc(C2CCNCC2)cc1		> 100 µM
CC1=CC(O)(c2ccccc2)C(N2CCOCC2)N1O (centres undefined)		> 100 µM
CCOC(=O)Nc1cc(NC(/C=N/NC(C)=O)C(=O)OCC)c(OC)cc1NC(C)=O (centres undefined)		> 100 µM
S=c1nc2sc3c(c2c(Nc2ccccc2)[nH]1)CCCC3		> 100 µM
C=C1c2nc3ccccc3n2C=C(c2ccc(OC)cc2)N1c1ccccc1		> 100 µM
NC(=O)C(N)CC12CC3CC(CC(C3)C1)C2 (centres undefined)		> 100 µM
O=C1Nc2ccccc2/C1=C\c1c[nH]c2ccc(Br)cc12	3.94	52.5 µM
COc1cccc(/C(COc2ccc3c(c2)oc(=O)c2ccccc23)=N\O)c1	20.1	> 100 µM
Cc1ccc(NC(=O)c2cc(S(=O)(=O)Nc3n[nH]c(=O)n3-c3ccccc3)c(S)cc2Cl)cc1		> 100 µM
N#CSCc1nc2ccc(Cl)cc2c(-c2ccccc2)[n+]1[O-]		> 100 µM
O=[As]O		> 100 µM
